Single values of this set are uncertain.
Experiment: amyloid nucleation score relative to library mode (yeast Sup35 reporter selection) (log enrichment difference); higher = more amyloid nucleation; sequences are the first 22 residues of the Bri2 peptide extended by up to 12 random residues
Details: random library (experiment): 2;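 active = nucleation score significantly above 0 at FDR 0.05; inactive = not significantly above 0 or absent from output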
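Also: [psi-pin-] Saccharomyces cerevisiae expressing SupN fusions, induced by 100 µM Cu2SO4, selected 7 d at 30 °C without adenine and uracil, scored by deep sequencing of output versus input.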

Question: Which amyloid nucleation score does the source give for EASNCFAIRHFENKFAVETLICKWYMSDSCYARQ here?
Answer: 2.93

Question: Which amyloid nucleation score does the source give for EASNCFAIRHFENKFAVETLICKY here?
Answer: inactive

Question: For EASNCFAIRHFENKFAVETLICKYFELGIFDQEE, which amyloid nucleation score is on record?
Answer: inactive

Question: For EASNCFAIRHFENKFAVETLICKYIVCSAGPSRR, which amyloid nucleation score is on record?
Answer: inactive

Question: With EASNCFAIRHFENKFAVETLICKYLSHARIYRDL as the sequence, how does the amyloid nucleation score read?
Answer: inactive

Question: With EASNCFAIRHFENKFAVETLICKYMRGRGFSCCA as the sequence, how does the amyloid nucleation score read?
Answer: inactive

Question: Which amyloid nucleation score does the source give for EASNCFAIRHFENKFAVETLICKYRPKC here?
Answer: inactive

Question: Which amyloid nucleation score does the source give for EASNCFAIRHFENKFAVETLICKYVDLYTDLQQK here?
Answer: inactive

Question: Which amyloid nucleation score does the source give for EASNCFAIRHFENKFAVETLICKYVLVTLEDFWA here?
Answer: inactive

Question: With EASNCFAIRHFENKFAVETLICLAE as the sequence, how does the amyloid nucleation score read?
Answer: inactive

Question: Which amyloid nucleation score does the source give for EASNCFAIRHFENKFAVETLICLAEDARVRWLCI here?
Answer: 4.11

Question: With EASNCFAIRHFENKFAVETLICLAGQSEWECERF as the sequence, how does the amyloid nucleation score read?
Answer: inactive

Question: Which amyloid nucleation score does the source give for EASNCFAIRHFENKFAVETLICLAGSYWDIEPVN here?
Answer: inactive

Question: Which amyloid nucleation score does the source give for EASNCFAIRHFENKFAVETLICLAIGCGIHRIFS here?
Answer: 6.62

Question: With EASNCFAIRHFENKFAVETLICLAKMFVSRLGVN as the sequence, how does the amyloid nucleation score read?
Answer: inactive

Question: For EASNCFAIRHFENKFAVETLICLAKVYHIVVFR, which amyloid nucleation score is on record?
Answer: inactive

Question: With EASNCFAIRHFENKFAVETLICLANFSHWNILCA as the sequence, how does the amyloid nucleation score read?
Answer: -0.077

Question: For EASNCFAIRHFENKFAVETLICLAPLVSLHSNMC, which amyloid nucleation score is on record?
Answer: 7.09

Question: For EASNCFAIRHFENKFAVETLICLARHLVQIHYVV, which amyloid nucleation score is on record?
Answer: inactive

Question: For EASNCFAIRHFENKFAVETLICLASAAVASLLVW, which amyloid nucleation score is on record?
Answer: inactive

Question: For EASNCFAIRHFENKFAVETLICLATSLSSDDSFS, which amyloid nucleation score is on record?
Answer: inactive

Question: With EASNCFAIRHFENKFAVETLICLAVNFQWLENLK as the sequence, how does the amyloid nucleation score read?
Answer: inactive

Question: For EASNCFAIRHFENKFAVETLICLAVRGIECGTVL, which amyloid nucleation score is on record?
Answer: inactive

Question: Which amyloid nucleation score does the source give for EASNCFAIRHFENKFAVETLICLAWKYFHVSPVR here?
Answer: inactive

Question: For EASNCFAIRHFENKFAVETLICLAWLWSCGSHKH, which amyloid nucleation score is on record?
Answer: inactive

Question: With EASNCFAIRHFENKFAVETLICLAWNSWSWTIGC as the sequence, how does the amyloid nucleation score read?
Answer: 4.64

Question: Which amyloid nucleation score does the source give for EASNCFAIRHFENKFAVETLICLC here?
Answer: 6.89

Question: For EASNCFAIRHFENKFAVETLICLCEAGKWSRCGR, which amyloid nucleation score is on record?
Answer: 4.52

Question: For EASNCFAIRHFENKFAVETLICLCGSYQLYNYMP, which amyloid nucleation score is on record?
Answer: 5.63

Question: With EASNCFAIRHFENKFAVETLICLCIRFRGGITSC as the sequence, how does the amyloid nucleation score read?
Answer: inactive

Same assay, conditions: random library (experiment): 3

Question: Which amyloid nucleation score does the source give for EASNCFAIRHFENKFAVETLICKWTHRPIDKVMC here?
Answer: 0.721

Question: With EASNCFAIRHFENKFAVETLICKWVQVDLGVWAR as the sequence, how does the amyloid nucleation score read?
Answer: inactive

Question: For EASNCFAIRHFENKFAVETLICKYDMGCIVCRCV, which amyloid nucleation score is on record?
Answer: 5.46

Question: For EASNCFAIRHFENKFAVETLICKYPHEYWVSS, which amyloid nucleation score is on record?
Answer: inactive

Question: Which amyloid nucleation score does the source give for EASNCFAIRHFENKFAVETLICKYRYTCFVLLSV here?
Answer: 1.11

Question: With EASNCFAIRHFENKFAVETLICLAASKMRSHKHA as the sequence, how does the amyloid nucleation score read?
Answer: inactive

Question: Which amyloid nucleation score does the source give for EASNCFAIRHFENKFAVETLICLACAQLWACL here?
Answer: inactive

Question: For EASNCFAIRHFENKFAVETLICLAGGTTFEATYM, which amyloid nucleation score is on record?
Answer: inactive

Question: With EASNCFAIRHFENKFAVETLICLAGMEPTVLMSS as the sequence, how does the amyloid nucleation score read?
Answer: -0.218

Question: With EASNCFAIRHFENKFAVETLICLAKVRLQAPGMR as the sequence, how does the amyloid nucleation score read?
Answer: 4.06

Question: Which amyloid nucleation score does the source give for EASNCFAIRHFENKFAVETLICLAKWFA here?
Answer: inactive

Question: For EASNCFAIRHFENKFAVETLICLALLTDGHMSGW, which amyloid nucleation score is on record?
Answer: 0.475

Question: For EASNCFAIRHFENKFAVETLICLAMTQDEGTSET, which amyloid nucleation score is on record?
Answer: inactive

Question: Which amyloid nucleation score does the source give for EASNCFAIRHFENKFAVETLICLASL here?
Answer: inactive

Question: Which amyloid nucleation score does the source give for EASNCFAIRHFENKFAVETLICLASQASPPGEAV here?
Answer: 0.632

Question: With EASNCFAIRHFENKFAVETLICLATMGVWFSRCS as the sequence, how does the amyloid nucleation score read?
Answer: -0.00897

Question: With EASNCFAIRHFENKFAVETLICLAV as the sequence, how does the amyloid nucleation score read?
Answer: inactive

Question: Which amyloid nucleation score does the source give for EASNCFAIRHFENKFAVETLICLAVWQCARPALP here?
Answer: inactive

Question: Which amyloid nucleation score does the source give for EASNCFAIRHFENKFAVETLICLAWKLREHGDRS here?
Answer: inactive

Question: For EASNCFAIRHFENKFAVETLICLAWYVCR, which amyloid nucleation score is on record?
Answer: inactive

Question: Which amyloid nucleation score does the source give for EASNCFAIRHFENKFAVETLICLCACQYLPTRCV here?
Answer: 6.87

Question: For EASNCFAIRHFENKFAVETLICLCAVISMLGSFE, which amyloid nucleation score is on record?
Answer: inactive

Question: For EASNCFAIRHFENKFAVETLICLCEKGSVCIQAR, which amyloid nucleation score is on record?
Answer: inactive

Question: For EASNCFAIRHFENKFAVETLICLCEKVLVRCVKG, which amyloid nucleation score is on record?
Answer: inactive

Question: Which amyloid nucleation score does the source give for EASNCFAIRHFENKFAVETLICLCEQSYRYGKRY here?
Answer: 3.31

Question: Which amyloid nucleation score does the source give for EASNCFAIRHFENKFAVETLICLCERVEPYHASL here?
Answer: 4.87

Question: For EASNCFAIRHFENKFAVETLICLCGKCVSCRIEW, which amyloid nucleation score is on record?
Answer: inactive

Question: For EASNCFAIRHFENKFAVETLICLCIVRLLPLVED, which amyloid nucleation score is on record?
Answer: inactive

Question: For EASNCFAIRHFENKFAVETLICLCKNLDCELCAK, which amyloid nucleation score is on record?
Answer: inactive

Reference: the supplement of paper PMC12067230
